Laboratory results taken from the supplement of paper PMC9046079.
± gives the standard deviation of the averaged measurements. This is one part of the list.

Tests used:
[1] = tested on: murine small intestinal organoids (ENR+CD Paneth differentiation); experiment: cellular ATP (CellTiter-Glo 3D) relative to plate median (log10 fold change); higher = more viable cells; details: 6 d
[2] = tested on: murine small intestinal organoids (ENR+CD Paneth differentiation); experiment: carbachol-stimulated secreted lysozyme activity relative to plate median (log10 fold change); higher = more Paneth cell lysozyme secretion; details: 6 d, carbachol 10 µM
[3] = tested on: murine small intestinal organoids (ENR+CD Paneth differentiation); experiment: basal (non-stimulated) secreted lysozyme activity relative to plate median (log10 fold change); higher = more Paneth cell lysozyme secretion; details: 6 d
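Wherever basal (non-stimulated) secreted lysozyme activity relative to plate median is given: ISC-enriched organoid precursors grown as 2.5D pseudo-monolayer on Matrigel, compound given on day 0 and day 3, plate values LOESS-normalized before median fold change, three murine donors.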
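Wherever cellular ATP (CellTiter-Glo 3D) relative to plate median is given: 2.5D pseudo-monolayer culture of ISC-enriched organoids partly embedded atop Matrigel, compound added on day 0 and again on day 3, per-plate LOESS correction before median fold change.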

CC(C)(C)n1nc(-c2ccc(Cl)cc2)c2c(N)ncnc21
cellular ATP (log10) ([1]; 0.08 µM): -0.701 ± 1.2
cellular ATP (log10) ([1]; 0.4 µM): 0.0385 ± 0.18
cellular ATP (log10) ([1]; 2 µM): -0.423 ± 0.79
cellular ATP (log10) ([1]; 10 µM): -0.384 ± 0.11
carbachol-stimulated secreted lysozyme activity (log10) ([2]; 0.08 µM): 0.128 ± 0.0024
carbachol-stimulated secreted lysozyme activity (log10) ([2]; 0.4 µM): 0.0172 ± 0.044
carbachol-stimulated secreted lysozyme activity (log10) ([2]; 2 µM): 0.0651 ± 0.15
carbachol-stimulated secreted lysozyme activity (log10) ([2]; 10 µM): 0.0189 ± 0.071
basal (log10) ([3]; 0.08 µM): 0.00247 ± 0.063
basal (log10) ([3]; 0.4 µM): 0.051 ± 0.097
basal (log10) ([3]; 2 µM): 0.102 ± 0.14
basal (log10) ([3]; 10 µM): 0.00463 ± 0.11

CCOC(=O)[C@H]1O[C@@H]1C(=O)N[C@@H](CC(C)C)C(=O)NCCC(C)C [Aloxistatin]
cellular ATP (log10) ([1]; 0.08 µM): -0.00644 ± 0.083
cellular ATP (log10) ([1]; 0.4 µM): -0.006 ± 0.17
cellular ATP (log10) ([1]; 2 µM): -0.129 ± 0.097
cellular ATP (log10) ([1]; 10 µM): -0.214 ± 0.24
carbachol-stimulated secreted lysozyme activity (log10) ([2]; 0.08 µM): 0.0277 ± 0.18
carbachol-stimulated secreted lysozyme activity (log10) ([2]; 0.4 µM): -0.031 ± 0.046
carbachol-stimulated secreted lysozyme activity (log10) ([2]; 2 µM): -0.0933 ± 0.066
carbachol-stimulated secreted lysozyme activity (log10) ([2]; 10 µM): -0.235 ± 0.18
basal (log10) ([3]; 0.08 µM): 0.0196 ± 0.079
basal (log10) ([3]; 0.4 µM): -0.0288 ± 0.054
basal (log10) ([3]; 2 µM): -0.0372 ± 0.066
basal (log10) ([3]; 10 µM): -0.142 ± 0.086

COc1cc2/c(=N/c3ccc(Br)cc3F)nc[nH]c2cc1OCC1CCN(C)CC1 [Vandetanib (ZD6474)]
cellular ATP (log10) ([1]; 0.08 µM): -1.31 ± 0.65
cellular ATP (log10) ([1]; 0.4 µM): -0.228 ± 0.55
cellular ATP (log10) ([1]; 2 µM): -0.533 ± 0.86
cellular ATP (log10) ([1]; 10 µM): -0.534 ± 0.48
carbachol-stimulated secreted lysozyme activity (log10) ([2]; 0.08 µM): -0.323 ± 0.12
carbachol-stimulated secreted lysozyme activity (log10) ([2]; 0.4 µM): 0.264 ± 0.23
carbachol-stimulated secreted lysozyme activity (log10) ([2]; 2 µM): -0.231 ± 0.48
carbachol-stimulated secreted lysozyme activity (log10) ([2]; 10 µM): -0.349 ± 0.56
basal (log10) ([3]; 0.08 µM): -0.146 ± 0.13
basal (log10) ([3]; 0.4 µM): 0.00386 ± 0.23
basal (log10) ([3]; 2 µM): -0.159 ± 0.26
basal (log10) ([3]; 10 µM): -0.176 ± 0.26

COc1ccccc1OCCNCC(O)COc1cccc2[nH]c3ccccc3c12 (stereo not drawn) [Carvedilol]
cellular ATP (log10) ([1]; 0.08 µM): 0.0568 ± 0.07
cellular ATP (log10) ([1]; 0.4 µM): -0.0141 ± 0.46
cellular ATP (log10) ([1]; 2 µM): -0.151 ± 0.16
cellular ATP (log10) ([1]; 10 µM): -0.242 ± 0.21
carbachol-stimulated secreted lysozyme activity (log10) ([2]; 0.08 µM): -0.0322 ± 0.045
carbachol-stimulated secreted lysozyme activity (log10) ([2]; 0.4 µM): -0.0981 ± 0.087
carbachol-stimulated secreted lysozyme activity (log10) ([2]; 2 µM): -0.114 ± 0.16
carbachol-stimulated secreted lysozyme activity (log10) ([2]; 10 µM): 0.0736 ± 0.33
basal (log10) ([3]; 0.08 µM): 0.00238 ± 0.026
basal (log10) ([3]; 0.4 µM): -0.0201 ± 0.029
basal (log10) ([3]; 2 µM): 0.0995 ± 0.29
basal (log10) ([3]; 10 µM): -0.0533 ± 0.0041

CC(C)CCNC(=O)[C@H](CC(C)C)NC(=O)[C@H]1O[C@@H]1C(=O)O [Loxistatin Acid (E-64C)]
cellular ATP (log10) ([1]; 0.08 µM): 0.0862 ± 0.23
cellular ATP (log10) ([1]; 0.4 µM): 0.156 ± 0.23
cellular ATP (log10) ([1]; 2 µM): 0.0801 ± 0.29
cellular ATP (log10) ([1]; 10 µM): 0.094 ± 0.18
carbachol-stimulated secreted lysozyme activity (log10) ([2]; 0.08 µM): 0.098 ± 0.055
carbachol-stimulated secreted lysozyme activity (log10) ([2]; 0.4 µM): 0.0284 ± 0.11
carbachol-stimulated secreted lysozyme activity (log10) ([2]; 2 µM): -0.052 ± 0.0049
carbachol-stimulated secreted lysozyme activity (log10) ([2]; 10 µM): -0.00288 ± 0.065
basal (log10) ([3]; 0.08 µM): 0.147 ± 0.14
basal (log10) ([3]; 0.4 µM): 0.0613 ± 0.13
basal (log10) ([3]; 2 µM): 0.0554 ± 0.076
basal (log10) ([3]; 10 µM): 0.00356 ± 0.072

O=S(=O)(NCCNCC=Cc1ccc(Br)cc1)c1cccc2cnccc12
cellular ATP (log10) ([1]; 0.08 µM): 0.35 ± 0.17
cellular ATP (log10) ([1]; 0.4 µM): 0.398 ± 0.26
cellular ATP (log10) ([1]; 2 µM): 0.421 ± 0.34
cellular ATP (log10) ([1]; 10 µM): 0.385 ± 0.14
carbachol-stimulated secreted lysozyme activity (log10) ([2]; 0.08 µM): 0.0418 ± 0.085
carbachol-stimulated secreted lysozyme activity (log10) ([2]; 0.4 µM): 0.158 ± 0.18
carbachol-stimulated secreted lysozyme activity (log10) ([2]; 2 µM): 0.0652 ± 0.26
carbachol-stimulated secreted lysozyme activity (log10) ([2]; 10 µM): -0.0576 ± 0.33
basal (log10) ([3]; 0.08 µM): 0.14 ± 0.083
basal (log10) ([3]; 0.4 µM): 0.0798 ± 0.016
basal (log10) ([3]; 2 µM): 0.0858 ± 0.11
basal (log10) ([3]; 10 µM): 0.132 ± 0.27

COc1cc(OC2CCN(C)CC2)ccc1Nc1ncc2c(n1)n(C1CCCC1)c(=O)n2C
cellular ATP (log10) ([1]; 0.08 µM): -0.13 ± 0.28
cellular ATP (log10) ([1]; 0.4 µM): -0.262 ± 0.37
cellular ATP (log10) ([1]; 2 µM): -0.369 ± 0.33
cellular ATP (log10) ([1]; 10 µM): -1.17 ± 0.44
carbachol-stimulated secreted lysozyme activity (log10) ([2]; 0.08 µM): 0.00858 ± 0.093
carbachol-stimulated secreted lysozyme activity (log10) ([2]; 0.4 µM): -0.0215 ± 0.067
carbachol-stimulated secreted lysozyme activity (log10) ([2]; 2 µM): -0.0756 ± 0.14
carbachol-stimulated secreted lysozyme activity (log10) ([2]; 10 µM): -0.494 ± 0.039
basal (log10) ([3]; 0.08 µM): 0.0734 ± 0.0027
basal (log10) ([3]; 0.4 µM): -0.0376 ± 0.055
basal (log10) ([3]; 2 µM): -0.079 ± 0.084
basal (log10) ([3]; 10 µM): -0.281 ± 0.081

Cc1ccc([C@@H]2O[C@H](CO)[C@@H](O)[C@H](O)[C@H]2O)cc1Cc1ccc(-c2ccc(F)cc2)s1 [Canagliflozin]
cellular ATP (log10) ([1]; 0.08 µM): -0.24 ± 0.13
cellular ATP (log10) ([1]; 0.4 µM): -0.0985 ± 0.21
cellular ATP (log10) ([1]; 2 µM): 0.0421 ± 0.041
cellular ATP (log10) ([1]; 10 µM): -0.0789 ± 0.12
carbachol-stimulated secreted lysozyme activity (log10) ([2]; 0.08 µM): 0.0181 ± 0.21
carbachol-stimulated secreted lysozyme activity (log10) ([2]; 0.4 µM): -0.0468 ± 0.07
carbachol-stimulated secreted lysozyme activity (log10) ([2]; 2 µM): 0.0145 ± 0.059
carbachol-stimulated secreted lysozyme activity (log10) ([2]; 10 µM): 0.0179 ± 0.051
basal (log10) ([3]; 0.08 µM): -0.0268 ± 0.12
basal (log10) ([3]; 0.4 µM): -0.0457 ± 0.036
basal (log10) ([3]; 2 µM): 0.0246 ± 0.037
basal (log10) ([3]; 10 µM): -0.0639 ± 0.042

Nc1ccc(C(=O)O)c(O)c1 [Sodium 4-Aminosalicylate]
cellular ATP (log10) ([1]; 0.08 µM): 0.203 ± 0.062
cellular ATP (log10) ([1]; 0.4 µM): 0.166 ± 0.25
cellular ATP (log10) ([1]; 2 µM): 0.0448 ± 0.11
cellular ATP (log10) ([1]; 10 µM): 0.221 ± 0.14
carbachol-stimulated secreted lysozyme activity (log10) ([2]; 0.08 µM): 0.139 ± 0.0088
carbachol-stimulated secreted lysozyme activity (log10) ([2]; 0.4 µM): 0.153 ± 0.16
carbachol-stimulated secreted lysozyme activity (log10) ([2]; 2 µM): 0.253 ± 0.099
carbachol-stimulated secreted lysozyme activity (log10) ([2]; 10 µM): 0.163 ± 0.083
basal (log10) ([3]; 0.08 µM): 0.0931 ± 0.032
basal (log10) ([3]; 0.4 µM): 0.0546 ± 0.036
basal (log10) ([3]; 2 µM): 0.0975 ± 0.12
basal (log10) ([3]; 10 µM): 0.172 ± 0.18
